Source: the supplement of paper PMC4967469
Lines with a small IC50 respond at low doses; a limit (>, <) means that the fit lies beyond the doses tested. AUC sums up the same curve from the lowest dose to the 256-fold higher top dose; it is 1 without any effect and falls as sensitivity rises. For some assays here: The top dose, if marked as inferred, is not printed in the source and was worked back from the curve model. For some assays here: Drugs with an entry number were screened twice under separate entries, and the two screens often disagree.

Tests used:
Test in all cases: Viability of human cancer cell lines after 72 h of drug (GDSC screen)
LFM-A13 = compound: C/C(O)=C(\C#N)C(=O)Nc1cc(Br)ccc1Br [LFM-A13]; conditions: top dose 16 µM; top dose inferred
Protocol: (§1)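 Human cancer cell lines in 384-well plates, medium with 10% serum, drug for 72 h over a 256-fold dose range (nine 2-fold or five 4-fold steps up to the top dose). Adherent lines were fixed and stained with the nucleic acid dye Syto60, suspension lines read with resazurin; signal relative to control wells, capped at 0 and 100%. One two-parameter sigmoid per drug and line, fitted in a mixed model over all curves with the slope shared within a line.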

TW-37 = compound: CC(C)c1ccccc1Cc1cc(C(=O)Nc2ccc(S(=O)(=O)c3ccccc3C(C)(C)C)cc2)c(O)c(O)c1O [TW-37]; conditions: top dose 5 µM
Protocol: as §1

Bicalutamide = compound: CC(O)(CS(=O)(=O)c1ccc(F)cc1)C(=O)Nc1ccc(C#N)c(C(F)(F)F)c1 [Bicalutamide]; conditions: top dose inferred
Protocol: as §1

AUY922 = compound: CCNC(=O)c1noc(-c2cc(C(C)C)c(O)cc2O)c1-c1ccc(CN2CCOCC2)cc1 [AUY922]; conditions: top dose 0.256 µM; top dose inferred
Protocol: as §1

KIN001-270 = compound: Cc1ccc(Nc2cc(-c3cccc(N4C(=O)c5ccccc5C4=O)c3)ncn2)cc1NS(C)(=O)=O [KIN001-270]; conditions: top dose 20 µM; top dose inferred
Protocol: as §1

Nilotinib = compound: Cc1cn(-c2cc(NC(=O)c3ccc(C)c(Nc4nccc(-c5cccnc5)n4)c3)cc(C(F)(F)F)c2)cn1 [Nilotinib]; conditions: top dose 2 µM
Protocol: as §1

GNF-2 = compound: NC(=O)c1cccc(-c2cc(Nc3ccc(OC(F)(F)F)cc3)ncn2)c1 [GNF-2]; conditions: top dose 1.28 µM; top dose inferred
Protocol: as §1

Gemcitabine = compound: Nc1ccn([C@@H]2O[C@H](CO)[C@@H](O)C2(F)F)c(=O)n1 [Gemcitabine]; conditions: top dose 1.024 µM
Protocol: as §1

T0901317 = compound: O=S(=O)(c1ccccc1)N(CC(F)(F)F)c1ccc(C(O)(C(F)(F)F)C(F)(F)F)cc1 [T0901317]; conditions: top dose 10.24 µM; top dose inferred
Protocol: as §1

MP470 = compound: S=C(NCc1ccc2c(c1)OCO2)N1CCN(c2ncnc3c2oc2ccccc23)CC1 [MP470]; conditions: top dose 20 µM; top dose inferred
Protocol: as §1

[1] = top dose 1.024 µM, screen: GDSC drug entry 150
[2] = top dose 10 µM, screen: GDSC drug entry 1502

Cell Line | AUC (LFM-A13) | IC50 (LFM-A13) [nM] | AUC (TW-37) | IC50 (TW-37) [nM] | AUC (Bicalutamide; [1]) | IC50 (Bicalutamide; [1]) [nM] | AUC (Bicalutamide; [2]) | IC50 (Bicalutamide; [2]) [nM] | AUC (AUY922) | IC50 (AUY922) [nM] | AUC (KIN001-270) | IC50 (KIN001-270) [nM] | AUC (Nilotinib) | IC50 (Nilotinib) [nM] | AUC (GNF-2) | IC50 (GNF-2) [nM] | AUC (Gemcitabine) | IC50 (Gemcitabine) [nM] | AUC (T0901317) | IC50 (T0901317) [nM] | AUC (MP470) | IC50 (MP470) [nM]
GI-ME-N (neuroblastoma, adherent) | 0.943 | > 16000 | 0.543 | 426 | 0.977 | > 1020 | 0.94 | > 10000 | 0.587 | 30.3 | 0.905 | > 20000 | 0.965 | > 2000 | 0.969 | > 1280 | 0.89 | > 1020 | 0.914 | > 10200 |  | 
H9 (lymphoid neoplasm, suspension) | 0.989 | > 16000 | 0.545 | 405 | 0.992 | > 1020 | 0.982 | > 10000 | 0.529 | 18.9 | 0.991 | > 20000 | 0.992 | > 2000 | 0.992 | > 1280 | 0.087 | < 4 | 0.924 | > 10200 |  | 
HH (T-cell leukaemia, suspension) | 0.91 | > 16000 | 0.651 | 947 | 0.975 | > 1020 | 0.942 | > 10000 | 0.599 | 32.8 | 0.887 | > 20000 | 0.963 | > 2000 | 0.978 | > 1280 | 0.505 | 66.4 | 0.843 | > 10200 |  | 
IST-SL2 (small cell lung carcinoma, suspension) | 0.947 | > 16000 | 0.56 | 454 | 0.988 | > 1020 | 0.964 | > 10000 | 0.581 | 26.6 |  |  | 0.97 | > 2000 | 0.989 | > 1280 | 0.23 | 10.6 | 0.887 | > 10200 | 0.639 | 3020
KARPAS-231 (B-cell leukaemia, suspension) | 0.918 | 14300 | 0.463 | 254 | 0.994 | > 1020 | 0.992 | > 10000 | 0.552 | 21.4 |  |  | 0.951 | > 2000 | 0.993 | > 1280 | 0.015 | < 4 | 0.072 | 40.1 | 0.89 | 13900
KOPN-8 (B-cell leukaemia, suspension) | 0.971 | > 16000 |  |  | 0.988 | > 1020 | 0.988 | > 10000 | 0.525 | 18.6 | 0.964 | > 20000 | 0.981 | > 2000 | 0.986 | > 1280 | 0.295 | 18.7 | 0.919 | > 10200 | 0.87 | 14300
LS-123 (large intestine, adherent) | 0.945 | > 16000 |  |  | 0.982 | > 1020 | 0.957 | > 10000 | 0.556 | 23.9 | 0.959 | > 20000 | 0.977 | > 2000 | 0.953 | > 1280 | 0.444 | 42.8 | 0.981 | > 10200 | 0.921 | > 20000
MHH-NB-11 (neuroblastoma, adherent) | 0.985 | > 16000 |  |  | 0.985 | > 1020 |  |  | 0.835 | 193 | 0.981 | > 20000 | 0.973 | > 2000 | 0.985 | > 1280 | 0.904 | > 1020 | 0.985 | > 10200 | 0.979 | > 20000
MMAC-SF (melanoma, adherent) | 0.959 | > 16000 |  |  | 0.986 | > 1020 | 0.986 | > 10000 | 0.585 | 27.6 | 0.987 | > 20000 | 0.963 | > 2000 | 0.963 | > 1280 | 0.86 | 919 | 0.985 | > 10200 | 0.911 | > 20000
MY-M12 (leukaemia, suspension) | 0.916 | > 16000 | 0.528 | 375 | 0.97 | > 1020 |  |  | 0.45 | 11.5 | 0.878 | > 20000 | 0.28 | 27.1 | 0.961 | > 1280 | 0.404 | 33.7 | 0.278 | 137 |  | 
NCI-H510A (small cell lung carcinoma, semi-adherent) | 0.975 | > 16000 | 0.531 | 376 | 0.987 | > 1020 |  |  | 0.792 | 106 | 0.958 | > 20000 | 0.989 | > 2000 | 0.981 | > 1280 | 0.473 | 54.4 | 0.989 | > 10200 |  | 
SK-N-FI (neuroblastoma, adherent) | 0.989 | > 16000 |  |  | 0.989 | > 1020 | 0.987 | > 10000 | 0.901 | > 256 | 0.978 | > 20000 | 0.989 | > 2000 | 0.987 | > 1280 | 0.972 | > 1020 | 0.989 | > 10200 | 0.973 | > 20000
SK-PN-DW (Ewing sarcoma, adherent) | 0.944 | > 16000 |  |  | 0.98 | > 1020 | 0.964 | > 10000 | 0.532 | 19.6 | 0.945 | > 20000 | 0.839 | 1440 | 0.984 | > 1280 | 0.06 | < 4 | 0.939 | > 10200 | 0.852 | 16400
WIL2-NS (lymphoid neoplasm, suspension) | 0.974 | > 16000 | 0.758 | 1450 | 0.992 | > 1020 |  |  | 0.302 | 5.04 | 0.954 | > 20000 | 0.991 | > 2000 | 0.992 | > 1280 | 0.03 | < 4 | 0.966 | > 10200 |  | 
